Consider 57 sequences from the supplement of paper PMC11417369.

This is one part of the list.

This assay deals with PfSIP2 AP2 domain 1 (GST-tagged). Nature of the assay: gcPBM binding intensity (ln(normalized median fluorescence intensity)); higher = stronger DNA binding. The gist of the method:
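In this array assay, P. falciparum DNA-binding domains with a GST tag, expressed in E. coli, were applied for 1 h to primer-extended double-stranded 36-bp intergenic genomic probes and negative controls on an Agilent 4 × 180k array. Bound protein was visualised with Alexa488 anti-GST antibody at 488 nm. Binding intensity is the highest Masliner-normalised natural-log median intensity across replicate spots of either probe orientation.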
As for “TTTGTTCTTTTAATGTGTACATATACACTTGTAATA [XGTACX_site2635]”, the “gcPBM binding intensity (ln)” value amounted to 7.29.
Regarding “AAAAAAAAAAGAAACACACACATTTGTCTATAATAT [CACACA_site7063]”, the “gcPBM binding intensity (ln)” value is 6.8.
As for “ATGTATGCAAAAATGGTGCATATTAAATGTATAACA [GTGCAC_site9722]”, the “gcPBM binding intensity (ln)” value was 11.1.
As to “TGACCTTATGTGTTTTGAAGGGGAAAGGAAATGCGC [XGTACX_negctrl_site411]”, the “gcPBM binding intensity (ln)” value came to 6.86.
The figure for “TATAAAAATAGGATTTGTACATATAAAAAAGGAAAA [XGTACX_site8678]” is 7; for “TAATATAAAAAAGGTACTACACGAAGGAATAAAAAT [XGTACX_site6872]” it is 7.36.
With “CAGAAATAGAGATACACACACACATATATTTATGTA [CACACA_site3968]”, the “gcPBM binding intensity (ln)” value was 6.91.
For “TATAAATATATGTATGCACACATTTTTTTTGGAAAA [CACACA_site1070]” the value was 8.1; for “GGTATAATTCATATAACACACATTTCAATGTTAAAA [CACACA_site2172]”, 6.99; for “TGTATTAATTTGTAATGTACACATATATGTATTATA [XGTACX_site4152]”, 7.08.
As to “TAAGTAAACTTTCTATGTACATATTTTCAAATATTA [XGTACX_site6260]”, the “gcPBM binding intensity (ln)” value is 7.05.
In the case of “CTTATATATACATATACACACACACCCATATATATA [CACACA_site8705]”, the “gcPBM binding intensity (ln)” value worked out at 7.48.
Turning to “TTAACAAAATTTTTAACACACAAAAAAAAAAAAAAA [CACACA_site1828]”, the “gcPBM binding intensity (ln)” value turned out to be 6.92.
Consider “ATGTAGACAACATATGAACACACAAAATATTTTTTT [CACACA_site8955]”, for which the “gcPBM binding intensity (ln)” value came to 7.16.
The figure for “CCAAAATTTATAAATTGTACATATTTTTAAATTCTT [XGTACX_site833]” is 6.93; for “ATAAAAGAATTAAATAATCAAAATGATTATTTTATA [CACACA_negctrl_site466]” it is 6.45.
As to “GATAAATAATAATAAGGTACACATAAAATATTCCTT [XGTACX_site2963]”, the “gcPBM binding intensity (ln)” value came to 6.86.
Take “TATATATATATAATTACACACAATGTTCTATATATA [CACACA_site3235]”: the “gcPBM binding intensity (ln)” value was found to be 8.75.
Regarding “TATTTATTTAATTACACACGAACATATAACCATTTC [CACACA_site211]”, the “gcPBM binding intensity (ln)” value came out at 7.2.
On to “TGTAGACTACATAGTAGTACATAATATATACATATA [XGTACX_site367]”, for which the “gcPBM binding intensity (ln)” value turned out to be 6.9.
On to “TTTTCTTTTAAACATATATATATATATATATATATA [XGTACX_negctrl_site559]”, for which the “gcPBM binding intensity (ln)” value turned out to be 9.52.
For the sequence “GTTGAAAAAAAAAATGCACACGCATACATATAATAT [CACACA_site8117]”, the “gcPBM binding intensity (ln)” value worked out at 7.39.
With “ATTTCTTTGCTTTTCAAACACACAAAAGTTATTATA [CACACA_site520]”, the “gcPBM binding intensity (ln)” value worked out at 7.24.
On to “TTTTTTGTATTTTTCACACACTCTCTATCTCTCTCA [CACACA_site2095]”, for which the “gcPBM binding intensity (ln)” value was 6.75.
Regarding “AAAAAAAAAAAAAAAACACACATATATATTATTGTA [CACACA_site3979]”, the “gcPBM binding intensity (ln)” value stood at 7.44.
For “GAATATTACATGTATTGTACAGGTAATGTTAAAAAT [XGTACX_site8274]”, the “gcPBM binding intensity (ln)” value is 6.96.
With “TAACATAAATCCATACGTACCTATATATATATAATA [XGTACX_site2626]”, the “gcPBM binding intensity (ln)” value was 7.05.
The figure for ATTTATATTAAAAGTGTGCACTTTTTTTTTTTTTTT is 10.1; for “TCATTCCATACTTTAACACACAAATATATTTAATCC [CACACA_site145]” it is 7.07.
For “TTTTTTTTTTTGTTTTGTACATAAATTGCAACCAAT [XGTACX_site8949]”, the “gcPBM binding intensity (ln)” value was 7.33.
For the sequence “ATATATATATATATATGTACATATTCACTTATATTT [XGTACX_site5324]”, the “gcPBM binding intensity (ln)” value is 9.47.
As to “TAATCATAAAAAAATACACACATATAAAATATAGAT [CACACA_site7020]”, the “gcPBM binding intensity (ln)” value stood at 6.91.
“ATATTTATAAATTGCACACAAATAATAACATTATAT [CACACA_site5322]”: the “gcPBM binding intensity (ln)” value stood at 7.13.
As to “AAAAGTTAAGCAACAAATTTTATTTCTTATATATAA [TGCATGCA_negctrl_site134]”, the “gcPBM binding intensity (ln)” value was determined as 6.86.
Regarding “AAAATTCTTATAAGATGTACAATTTGTAACACTATA [XGTACX_site510]”, the “gcPBM binding intensity (ln)” value amounted to 7.
On to “TCACATACATTACTTACACACCATATTAAGATATAC [CACACA_site4415]”, for which the “gcPBM binding intensity (ln)” value is 7.29.
Take “AAATAAATATATAATACACACAAAAATATAAAATGT [CACACA_site3711]”: the “gcPBM binding intensity (ln)” value was determined as 7.26.
The figure for “TTTTGTATATATTATTGTACTTTTAATATAGATCGT [XGTACX_site5830]” is 7.37.
In the case of “TTATACTCACGTTACACACACACAATATATATATAT [CACACA_site4137]”, the “gcPBM binding intensity (ln)” value was found to be 9.17.
For “TTTTTTACAACACGAAAATGAACAATTATAATAAAT [TGCATGCA_negctrl_site301]” the value was 6.97; for “AGTAAAAAAAATATCTGTACATATTAATATAAATGT [XGTACX_site6234]”, 7.11; for “AAATATTATTCTTTTATTTTTAAACATATAATTATA [GTGCAC_negctrl_site136]”, 6.82.
Regarding “TTATACACTGATAAAAGTACATTTGTATGTTTTTTT [XGTACX_site8959]”, the “gcPBM binding intensity (ln)” value is 6.78.
Take “ATCTAAAAATTTTACGCACACAAGTAAAAAAAAAAA [CACACA_site2485]”: the “gcPBM binding intensity (ln)” value came to 7.25.
Turning to “TTTTATAATCATAATAGTACTTTTTCTTTTTCACAT [XGTACX_site5017]”, the “gcPBM binding intensity (ln)” value was found to be 6.7.
In the case of TCCTATATCACAAATGTGCACAGAAAAAAAAAATAT, the “gcPBM binding intensity (ln)” value worked out at 9.85.
“ATATATATATACATACGTACACACAAATATTAAAAT [XGTACX_site4007]”: the “gcPBM binding intensity (ln)” value worked out at 8.63.
Consider “AATATATATAATAATTGTACAATACGTATGTTATAT [XGTACX_site8745]”, for which the “gcPBM binding intensity (ln)” value stood at 7.14.
Take “TGTATACATAATATTTGTACATATTGTTATATATAT [XGTACX_site740]”: the “gcPBM binding intensity (ln)” value is 7.6.
For “TTATAAAAAAAAAAAAAAAAGAAAATGAATTCACGA [CACACA_negctrl_site1248]” the value was 6.74; for “ATTTTATTTTTTGAGTGTACTAGTTCAACAACTCCG [XGTACX_site8600]”, 7.19.
On to “TTCGACGAGAGCAAGTGTACTCTTGAATAATTTATA [XGTACX_site7613]”, for which the “gcPBM binding intensity (ln)” value was 6.8.
With “TGTTATATATTATATACATGCACAAAAGCAACACAA [TGCATGCA_site1009]”, the “gcPBM binding intensity (ln)” value was 7.75.
As for “TGAATTTCAAAACAGTGTACATTAATATATATATAA [XGTACX_site7951]”, the “gcPBM binding intensity (ln)” value turned out to be 6.87.
For “ATATTTATGACCGTACGTACCTAACAATACAATCAA [XGTACX_site4511]” the value was 7.32; for “ATAATATATATATGTAGTACGTATATAATTTTAATA [XGTACX_site5228]”, 7.29; for “AAAAATAAAAAAAACACACATACCTTATTTTTGTTC [CACACA_site2634]”, 7.04.
